Results from US8282926B2, “CCR5-specific antibodies with HIV neutralizing activity that recognize a linear dodecapeptide that mimics a conformational epitope in the second extracellular loop of CCR5” (The United States of America, as Represented by the …, priority 2004, dated 2012).

Test system: mAb 2D7
Assay: Peptide preincubation with mAb 2D7 in fusion-inhibition assay
Format: cell-based, mouse
Conditions: 100-fold molar excess of peptide, PM1 cells; FIG. 5

Substance	effect of peptide preincubation on fusion inhibiting activity of mAb 2D7
E-W-Q-K-E-G-L-V-T-L-W-L-G-G-G-G-S-C (EWQKEGLVTLWLGGGGSC) [2D7-2SK]	significant reduction
F-C-A-L-D-G-D-F-G-W-L-A-P-A-C (FCALDGDFGWLAPAC) [MD23, reference compound]	did not block
